Results reported in the supplement of paper PMC10986608.
The other results are listed elsewhere or left out. Most values come without repeats; read them as rough.

tested on: Candida albicans DPL-15; assay: growth (OD600) after compound treatment (apparently relative to screen median) (relative growth (fraction; screen median 1.02)); DPL-15 is a caspofungin-resistant clinical isolate; higher = more fungal growth (less antifungal activity); settings: 25 µM; RPMI 1640; 48 h; 30 °C

| Structure (SMILES) | growth |
| --- | --- |
| Cc1cc(O)c2c3c4c(cc(O)c13)O[C@]1(CCCO1)[C@H](/C=C/CCOC(=O)c1ccccc1)[C@H]4OC2=O | 0.972 |
| Cc1ccccc1C1CC(c2ccccc2)=CC1=O (stereo not drawn) | 1.02 |
| COC(=O)C1=C(C)N(CCc2cccs2)C(NCC2CCCCC2)=NC1c1ccc(C)cc1 (stereo not drawn) | 0.94 |
| COc1ccc(-c2cc(N)n(C)n2)cc1 | 1.22 |
| Cc1ccc2c(=O)c3c(O)ccc(CC(=O)O)c3oc2c1C | 1.03 |
| COc1cc(OC)c2c(=O)c3c(CC=C(C)C)ccc(OCC(N)=O)c3oc2c1 | 0.959 |
| COc1ccc(C2=C(C(=O)NCCCOC(C)C)C3C(N2)C(=O)C[C@@H](c2ccccc2)[C@@H]3C)cc1 (stereo partly drawn) | 0.92 |
| COC(=O)C1=C(C)N(CCCOC(C)C)C(NCCc2cccs2)=NC1c1ccccc1 (stereo not drawn) | 1.07 |
| COC(=O)[C@@]1([C@H]2CCC(=O)O2)CC(=O)c2c(O)cc(C)c(-c3c(C)cc(O)c4c3O[C@](C(=O)OC)([C@H]3CCC(=O)O3)CC4=O)c2O1 | 1.5 |
| COC(=O)C1=C(C)N(Cc2ccccc2)C(=O)N[C@H]1c1ccc(Br)cc1 | 0.989 |
| COc1c(-c2c(OC)c(OC)c3cc4oc(C)cc(=O)c4c(OC)c3c2O)c(O)c2c(OC)c3c(=O)cc(C)oc3cc2c1OC | 1.02 |
| C[C@@H]1/C=C/CC(=O)OCCC(Oc2ccccc2)C(=O)N[C@@H](Cc2ccc(O)cc2)C(=O)N[C@@H]1/C=C/c1ccccc1 (stereo partly drawn) | 1.1 |
| CC(C)C1=NCCNC2=C1C(c1ccc3c(c1)OCO3)N(Cc1ccccc1)C2=O (stereo not drawn) | 0.911 |
| C#CCOC[C@@H](NC(=O)CC1(CNC(=O)c2cccc(/C=N/NS(=O)(=O)c3ccc(C)cc3)c2)CCCCC1)c1ccccc1 | 1.1 |
| COC(=O)[C@]12Oc3cccc(O)c3C(=O)C1=C(O)CC[C@@H]2O | 1.39 |
| CC1=NCCN(C)C2=C1C(c1ccc3c(c1)OCO3)N(Cc1ccccc1)C2=O (stereo not drawn) | 0.924 |
| COC(=O)C/C=C/[C@H](C)[C@@H](NC(=O)[C@@H](Cc1ccccc1)NC(=O)OC(C)(C)C)C1CC1 | 1.08 |
| CC(C)CCc1cc(O)cc2oc3ccccc3c(=O)c12 | 1 |
| COC(=O)c1cc(-c2ccccc2)c(C(=O)OC)nn1 | 1.07 |
| Cc1cc2c(-c3ccccc3)c(-c3ccccc3)nc3c2n1CCCC3 | 1.09 |
| CC(=O)C1=C(C)N(Cc2ccc(C(F)(F)F)cc2)C(=S)NC1c1cccc(Cl)c1 (stereo not drawn) | 0.919 |
| Cc1nn(C)cc1Nc1cc(O)cc(O)c1C(=O)N1CC2CC2C1 (stereo not drawn) | 1.2 |
| O=Cc1ccccc1OC/C=C/c1ccccc1 | 1.03 |
| COC[C@H]1O[C@H](c2ccccc2)C=C[C@@H]1OCC#Cc1cc(C#N)ccc1N | 0.932 |
| Cc1cccc2c1N=C1CCCCC12Cc1occc(=O)c1OS(C)(=O)=O (stereo not drawn) | 1.25 |
| COCCN1C(NCCc2cccs2)=NC(c2ccccc2)C(C(=O)OC)=C1C (stereo not drawn) | 1.16 |
| C[C@H]1Cc2c(-c3ccccc3)nc3c(c2CO1)CN(C(=O)Nc1cccc(C#N)c1)CC3 | 0.97 |

| Structure (SMILES) | growth |
| --- | --- |
| CS(=O)(=O)Oc1c(CC23CCCCC2=Nc2ccccc23)occ(Br)c1=O (stereo not drawn) | 0.933 |
| CC(C)CC1=NCC(C)(C)NC2=C1C(c1cccc(C(F)(F)F)c1)NC2=O (stereo not drawn) | 0.964 |
| CC1=C[C@H](COc2cccc(F)c2)O[C@]2(C1)C(=O)N(Cc1ccccc1)c1ccccc12 | 0.896 |
| CC(C)Cc1nn(-c2ccccc2)c2c1C(c1ccc3c(c1)OCO3)NC2=O (stereo not drawn) | 0.918 |
| O=C(NCC1=CC=CC=C1)C12CC3C[C@@H](CC(C3)C1)C2 | 0.963 |
| CC/C=C/C[C@@]1(C(=O)OC)C=C[C@@H](C)[C@H](c2ccccc2Br)N1C(=O)C(F)(F)F | 0.911 |
| COC(=O)C/C=C/[C@@H](C)[C@H](NC(=O)OC)c1ccccc1Br | 0.943 |
| Cc1cc(F)ccc1C1c2c(CC(C)C)n[nH]c2C(=O)N1c1ccc(N(C)C)cc1 (stereo not drawn) | 0.937 |
| COC(=O)C1=C(C)NC(=O)NC1c1ccc(Cl)cc1 (stereo not drawn) | 1.16 |
| O=c1ccoc(CC23CCCC2=Nc2ccccc23)c1O (stereo not drawn) | 1.12 |
| COc1ccc2c(c1)O[C@H](c1ccc3c(c1)OCO3)[C@@H](OC(=O)Nc1ccc(C)c(Br)c1)C2=O | 1.53 |
| COc1ccc(OC)c(-c2ccccc2/C=N/NS(C)(=O)=O)c1 | 0.983 |
| COc1ccc(C2NC(=S)N(C(C)(C)C)C(C)=C2C(C)=O)cc1 (stereo not drawn) | 1.02 |
| CC1=NCC(C)(C)NC2=C1C(c1cccc(C(F)(F)F)c1)NC2=O (stereo not drawn) | 0.886 |
| COC(=O)c1cc(OC)c(Cl)c(O)c1I | 0.844 |
| CNc1ccccc1C(=O)OCC(=O)c1ccc(OC)cc1 | 1.03 |
| O=S(=O)(c1cccs1)N1CCCc2nc(-c3ccc(Br)cc3)ccc21 | 0.976 |
| CCOC(=O)[C@H]1[C@@H](O)[C@@]2(O)c3c(OC)cc(OC)cc3O[C@@]2(c2ccc(OC)cc2)[C@@H]1c1ccc(Br)cc1 | 1.07 |
| Cc1ccc(C2C3=C(C(=O)N2Cc2ccccc2)N(C)CCN=C3C(C)C)cc1 (stereo not drawn) | 0.954 |
| CC(C)Cc1n[nH]c2c1C(c1ccc(F)cc1)N(CC1CCN(C)C1)C2=O (stereo not drawn) | 0.906 |
| CC(C)Cc1nn(-c2ccccc2)c2c1C(c1ccc(Br)cc1)NC2=O (stereo not drawn) | 0.902 |
| CC(C)CCCC(C)CCN(C(=O)OC(C)(C)C)S(=O)(=O)NC(C)(C)C (stereo not drawn) | 1.09 |
| COC(=O)C1=C(C)N(Cc2cccc(C(F)(F)F)c2)C(NCc2ccccc2)=NC1c1ccc(Cl)cc1 (stereo not drawn) | 0.843 |
| COC(=O)[C@@]1(/C=C/[C@@H](C)[C@H](OC)c2ccccc2Br)[C@@H]2OCC[C@@H]21 | 1.09 |
| CCOC(=O)C1=C(C)NC(=O)NC1c1ccc(C)cc1 (stereo not drawn) | 0.836 |
| CCCCC[C@@]12OCC[C@@H]1[C@@H]1OC(=O)c3c(O)cc(C)c4c(O)cc(c1c34)O2 | 1 |
